# Experimental data taken from the antibiotic and cytotoxicity screens of Wong et al. (2023).
# This is one part of the list.
# Columns and labels:
# HSkMC = human skeletal muscle cells; assay: cytotoxicity call (relative viability < 0.9); settings: 10 µM
# HepG2 = assay: cytotoxicity call (relative viability < 0.9); settings: 10 µM
# S. aureus RN4220 = assay: growth inhibition call (relative growth <= 0.2); settings: 50 µM
SMILES,cytotoxicity call (HSkMC),cytotoxicity call (HepG2),growth inhibition call (S. aureus RN4220)
O=C(C[C@@H]1CC[C@@H]2[C@H](COC[C@H](O)CN2S(=O)(=O)c2ccc(Oc3ccccc3)cc2)O1)NC1CCC1,inactive,inactive,inactive
C[C@H]1CN([C@@H](C)CO)C(=O)c2cccc(NS(=O)(=O)c3ccc(Cl)cc3)c2O[C@@H]1CN(C)Cc1ccc(Oc2ccccc2)cc1,inactive,active,inactive
Cc1noc(C)c1S(=O)(=O)N(C)C[C@@H]1OCCCC[C@@H](C)Oc2ccc(NS(C)(=O)=O)cc2C(=O)N([C@@H](C)CO)C[C@@H]1C,inactive,inactive,inactive
CO[C@@H]1CN(C)C(=O)c2cc(NS(=O)(=O)CC(F)(F)F)ccc2OC[C@@H](C)N(C(=O)c2ccc3c(c2)OCO3)C[C@H]1C,inactive,inactive,inactive
CC(C)NC(=O)N(C)C[C@@H]1Oc2ccc(NS(=O)(=O)c3cn(C)cn3)cc2CC(=O)N([C@H](C)CO)C[C@@H]1C,inactive,inactive,inactive
C[C@@H]1CN([C@@H](C)CO)C(=O)c2cc(NC(=O)c3ccncc3)ccc2O[C@@H](C)CCCCO[C@@H]1CN(C)Cc1ccc(C(F)(F)F)cc1,inactive,inactive,inactive
COC(=O)c1c(CC[C@@H](CO)NC(=O)N[C@H](Cn2cc(-c3ccccc3C)nn2)C(C)C)oc(C(C)=O)c1C(=O)OC,inactive,inactive,inactive
COc1ccc(cc1)NC(=O)N1C[C@]2(C1)CN([C@H](CO)c1[nH]c3cc(ccc3c12)OC)C(=O)CN1CCOCC1,inactive,inactive,inactive
COc1cc(CN2CCC(C(=O)N[C@@H](c3ccc(-c4ccccc4)cc3)c3cnccn3)CC2)cc(OC)c1,inactive,active,inactive
C[C@@H]1CN([C@@H](C)CO)C(=O)c2cc(NC(=O)Nc3ccc(F)cc3)ccc2O[C@@H](C)CCCCO[C@@H]1CN(C)Cc1ccccc1,inactive,active,inactive
C[C@H]1CN([C@@H](C)CO)C(=O)c2cc(C#Cc3ccccc3F)cnc2O[C@H]1CN(C)C(=O)Cc1ccncc1,inactive,inactive,inactive
COc1ccc(O)c(N)c1,inactive,active,inactive
CC(C)NC(=O)N(C)C[C@@H]1Oc2ccc(NC(=O)NC3CCCCC3)cc2CC(=O)N([C@@H](C)CO)C[C@H]1C,inactive,inactive,inactive
C[C@@H]1CN([C@@H](C)CO)C(=O)c2cc(NC(=O)Nc3cccc4ccccc34)ccc2O[C@@H](C)CCCCO[C@@H]1CN(C)C(=O)c1ccccc1,inactive,inactive,inactive
[O-][NH2+]N1CCCCC1,inactive,inactive,inactive
COc1ccc(-c2ccccn2)cc1,inactive,inactive,inactive
COc1ccc(CN(C)C[C@@H]2OCCCC[C@@H](C)Oc3ccc(NC(=O)Nc4ccccc4)cc3C(=O)N([C@@H](C)CO)C[C@H]2C)cc1,inactive,inactive,inactive
C[C@@H]1CN([C@@H](C)CO)C(=O)c2cccc(NC(=O)Nc3ccc4c(c3)OCO4)c2O[C@@H]1CN(C)S(=O)(=O)c1cn(C)cn1,inactive,inactive,inactive
CC(C)NC(=O)N(C)C[C@H]1Oc2ccc(NS(=O)(=O)c3cccs3)cc2CC(=O)N([C@@H](C)CO)C[C@@H]1C,inactive,inactive,inactive

SMILES,cytotoxicity call (HSkMC),cytotoxicity call (HepG2),growth inhibition call (S. aureus RN4220)
C[C@H]1CN([C@@H](C)CO)S(=O)(=O)c2ccc(C#Cc3ccc(F)cc3)cc2O[C@H]1CN(C)C(=O)CN(C)C,inactive,inactive,active
C[C@@H]1CN([C@@H](C)CO)C(=O)Cc2cc(NC(=O)C3CCCCC3)ccc2O[C@H]1CN(C)C(=O)Nc1ccc(C(F)(F)F)cc1,inactive,inactive,inactive
COc1nc2ccc(Br)cc2cc1[C@@H](c1ccccc1)[C@@](O)(CCN(C)C)c1cccc2ccccc12,inactive,inactive,inactive
C[C@@H]1CN([C@@H](C)CO)C(=O)c2cc(NS(C)(=O)=O)ccc2O[C@@H]1CN(C)S(=O)(=O)c1ccc(Cl)cc1,inactive,inactive,inactive
O=C(C[C@H]1C=C[C@@H](NC(=O)Nc2ccc3c(c2)OCO3)[C@H](CO)O1)NCCCN1CCOCC1,inactive,inactive,inactive
CC(C)NC(=O)Nc1cccc2c1O[C@H](CN(C)Cc1ccc3c(c1)OCO3)[C@H](C)CN([C@@H](C)CO)C2=O,inactive,inactive,inactive
COc1ccc([C@@H]([C@H](Cc2ccccc2)OC(C)=O)N2C[C@H]3[C@H]([C@@H](OC(C)=O)c4ccccc4)ON(C)[C@H]3[C@@H]2Cc2ccccc2)cc1,inactive,active,inactive
Cc1ccc(S(=O)(=O)N(C)C[C@@H]2Oc3ccc(NC(=O)CCN4CCOCC4)cc3CC(=O)N([C@H](C)CO)C[C@@H]2C)cc1,inactive,inactive,inactive
Cc1nnsc1C(=O)NCC1(O)CCCC1,inactive,inactive,inactive
Cc1noc(C)c1S(=O)(=O)N(C)C[C@H]1OCCCC[C@H](C)Oc2ccc(NC(=O)Nc3ccccc3)cc2C(=O)N([C@H](C)CO)C[C@@H]1C,active,inactive,inactive
COc1ccc(S(=O)(=O)N(C)C[C@@H]2OCCCC[C@@H](C)Oc3ccc(NS(C)(=O)=O)cc3C(=O)N([C@@H](C)CO)C[C@@H]2C)cc1,inactive,inactive,inactive
O=C(C[C@H]1CC[C@H]2[C@@H](COC[C@@H](O)CN2C(=O)c2ccncc2)O1)NC1CCC1,inactive,inactive,inactive
CO[C@@H]1CN(C)C(=O)c2cc(NS(=O)(=O)CC(F)(F)F)ccc2OC[C@H](C)N(Cc2cccnc2)C[C@H]1C,inactive,inactive,inactive
C[C@@H]1CN([C@@H](C)CO)S(=O)(=O)c2ccc(C#CCN(C)C)cc2O[C@@H]1CN(C)Cc1ccncc1,inactive,inactive,inactive
CCNC(=O)C[C@H]1CC[C@H]2[C@@H](COC[C@H](O)CN2C(=O)Nc2c(C)noc2C)O1,inactive,inactive,inactive
C[C@@H]1CN([C@H](C)CO)S(=O)(=O)c2ccc(C#CCN(C)C)cc2O[C@H]1CN(C)C(=O)CN(C)C,inactive,inactive,inactive
CC(C)CNC(=O)[C@@H]1c2ccccc2C(=O)N(Cc2ccccc2C(F)(F)F)[C@H]1c1ccc(CO)cc1,inactive,inactive,inactive
C[C@@H]1CCCCO[C@H](CN(C)S(=O)(=O)c2cccs2)[C@H](C)CN([C@@H](C)CO)C(=O)c2cc(NC(=O)Nc3ccc(C(F)(F)F)cc3)ccc2O1,active,active,inactive
O=C(O)Cc1nnc(-c2ccncc2)[nH]1,inactive,inactive,inactive

SMILES,cytotoxicity call (HSkMC),cytotoxicity call (HepG2),growth inhibition call (S. aureus RN4220)
C[C@@H]1CCCCO[C@@H](CN(C)C(=O)Nc2ccccc2)[C@@H](C)CN([C@H](C)CO)C(=O)c2cc(NS(=O)(=O)c3ccc(F)cc3)ccc2O1,inactive,inactive,inactive
COc1ccc2c3c([nH]c2c1)[C@H](CO)N(Cc1ccc(cc1)Cl)C[C@]13CCN(CC1)Cc1ccccc1,active,active,inactive
O=C(CCCl)NCc1ccccc1,inactive,inactive,inactive
C[C@@H]1CN([C@H](C)CO)C(=O)Cc2cc(NC(=O)Cn3cnnn3)ccc2O[C@H]1CN(C)Cc1ccc(C(=O)O)cc1,inactive,inactive,inactive
C[C@@H]1CN([C@H](C)CO)C(=O)Cc2cc(NC(=O)Cn3cnnn3)ccc2O[C@@H]1CN(C)Cc1ccc(Cl)c(Cl)c1,inactive,inactive,inactive
COc1ccc(-c2cnc3c(c2)C(=O)N([C@H](C)CO)C[C@@H](C)[C@H](CN(C)C(=O)Cc2ccccn2)O3)cc1,inactive,inactive,inactive
CS(=O)(=O)c1ccc(C#N)cc1,inactive,inactive,inactive
Cc1ccc(-c2nc(Nc3ccccc3F)sc2C)cc1,inactive,inactive,inactive
CC(C)NC(=O)Nc1ccc2c(c1)CC(=O)N([C@H](C)CO)C[C@H](C)[C@H](CN(C)S(=O)(=O)c1cn(C)cn1)O2,inactive,inactive,inactive
Cc1ccc(S(=O)(=O)Nc2ccc3c(c2)C(=O)N([C@@H](C)CO)C[C@H](C)[C@@H](CN(C)Cc2ccc(C(F)(F)F)cc2)O3)cc1,inactive,inactive,inactive
COc1ccc(S(=O)(=O)Nc2ccc3c(c2)CC(=O)N([C@@H](C)CO)C[C@@H](C)[C@H](CN(C)S(=O)(=O)c2cn(C)cn2)O3)cc1,inactive,inactive,inactive
COCCN1C[C@H]2[C@@H](OC)CCN(S(=O)(=O)c3cn(C)cn3)[C@H]2C1,inactive,inactive,inactive
Cc1noc(C)c1NC(=O)Nc1cccc2c1O[C@H](CN(C)C(=O)Nc1ccc(C(F)(F)F)cc1)[C@@H](C)CN([C@H](C)CO)C2=O,inactive,inactive,inactive
COc1ccc(S(=O)(=O)N(C)C[C@H]2OCCCC[C@H](C)Oc3ccc(NC(=O)Nc4ccccc4)cc3C(=O)N([C@@H](C)CO)C[C@@H]2C)cc1,inactive,inactive,inactive
O=C(C[C@H]1CC[C@H]2[C@@H](COC[C@@H](O)CN2CC2CCOCC2)O1)N1CCOCC1,inactive,inactive,inactive
C[C@H]1CN([C@@H](C)CO)C(=O)c2cc(C#Cc3ccncc3)cnc2O[C@@H]1CN(C)S(=O)(=O)c1ccccc1F,inactive,active,inactive
COc1ccc(NC(=O)N(C)C[C@@H]2Oc3ccc(NS(C)(=O)=O)cc3C(=O)N([C@H](C)CO)C[C@@H]2C)cc1,inactive,inactive,inactive
C[C@H]1CCCCO[C@H](CN(C)C(=O)Nc2cccc3ccccc23)[C@@H](C)CN([C@@H](C)CO)C(=O)c2cc(NC(=O)Nc3ccc4c(c3)OCO4)ccc2O1,inactive,inactive,inactive
